# Measured values: the supplement of paper PMC10369915
# This is one part of the list. Rule as the data show it: active = 3.2 or more and inactive = the rest. The signal is at background level for most entries.
# What was measured:
# Assay in all cases: enrichment score (SH2-bound / input frequency) (ratio); bacterial display of known human phosphotyrosine sites (pTyr-Var adds point mutants) read by sequencing; higher = stronger binding; tyrosines were phosphorylated by kinases first
# Conditions in all cases: peptide library: Human pTyr
# SHP2 C-SH2 domain E139D = molecular target: SHP2 C-SH2 domain E139D
# [1] = molecular target: SHP2 C-SH2 domain wild-type
# SHP2 N-SH2 domain L43F = molecular target: SHP2 N-SH2 domain L43F
# SHP2 N-SH2 domain T42A = molecular target: SHP2 N-SH2 domain T42A
# SHP2 N-SH2 domain T52S = molecular target: SHP2 N-SH2 domain T52S
# [2] = molecular target: SHP2 N-SH2 domain wild-type
# 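Also: displayed peptides selected on beads carrying the immobilized SH2 domain, with library peptides lacking any tyrosine serving as negative controls.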
Binder,enrichment score (SHP2 C-SH2 domain E139D),enrichment score [1],enrichment score (SHP2 N-SH2 domain L43F),enrichment score (SHP2 N-SH2 domain T42A),enrichment score (SHP2 N-SH2 domain T52S),enrichment score [2]
KKDTETVYSEVRKAV [PECA1_HUMAN_713],active: 7.27,active: 13,inactive: 0.947,inactive: 1.04,inactive: 1.19,inactive: 0.969
DKSSAHSYGGGGGGG [PERI_HUMAN_470],inactive: 0.723,inactive: 0.598,inactive: 0.584,inactive: 0.673,inactive: 0.728,inactive: 0.626
GARDSGAYWEVPPSE [ARAF_HUMAN_302_YA],inactive: 0.678,inactive: 0.627,inactive: 0.726,inactive: 0.666,inactive: 0.726,inactive: 0.619
NATTDFIYQLASEEG [PFKAP_HUMAN_651_YA],inactive: 0.78,inactive: 0.902,inactive: 0.868,inactive: 0.899,inactive: 0.611,inactive: 0.989
MDEKHPYYNSISKER [PGAM2_HUMAN_133],inactive: 0.733,inactive: 0.811,inactive: 0.763,inactive: 0.783,inactive: 0.987,inactive: 0.798
MDEKHPAYNSISKER [PGAM2_HUMAN_133_YA],inactive: 0.853,inactive: 0.754,inactive: 1.05,inactive: 0.741,inactive: 0.853,inactive: 0.821
ISPDGHEYIYVDPMQ [PGFRA_HUMAN_572],inactive: 0.65,inactive: 0.551,inactive: 0.717,inactive: 0.629,inactive: 0.703,inactive: 0.812
KQADTTQYVPMLERK [PGFRA_HUMAN_742],inactive: 1.09,inactive: 0.757,inactive: 0.793,inactive: 0.98,inactive: 0.722,inactive: 1
SDIQRSLYDRPASAK [PGFRA_HUMAN_762_YA],inactive: 0.809,inactive: 0.675,inactive: 0.916,inactive: 0.812,inactive: 0.797,inactive: 0.835
VSSDGHEYIAVDPMQ [PGFRB_HUMAN_579_YA],inactive: 0.556,inactive: 0.452,inactive: 0.609,inactive: 0.718,inactive: 0.49,inactive: 0.56
SDGHEYIYVDPMQLP [PGFRB_HUMAN_581],inactive: 0.813,inactive: 0.673,inactive: 0.831,inactive: 0.891,inactive: 0.667,inactive: 0.861
IITEYCRYGDLVDYL [PGFRB_HUMAN_686],inactive: 1.61,inactive: 1.34,inactive: 1.44,inactive: 1.42,inactive: 1.7,inactive: 1.76
IITEACRYGDLVDAL [PGFRB_HUMAN_686_YA],inactive: 1.79,inactive: 1.4,inactive: 1.5,inactive: 1.09,inactive: 1.8,inactive: 1.77
DMKGDVKYADIESSN [PGFRB_HUMAN_763],active: 3.98,active: 8.88,active: 3.9,active: 16.2,inactive: 2.7,inactive: 1.12
DIMRDSNYISKGSTF [PGFRB_HUMAN_857],inactive: 0.783,inactive: 0.655,inactive: 0.529,inactive: 0.874,inactive: 0.609,inactive: 0.727
KELGFKRYNSLSILP [PGFS_HUMAN_108],inactive: 0.88,inactive: 0.736,inactive: 0.776,inactive: 0.661,inactive: 0.842,inactive: 0.959
GVPMPDKYSLEPVAV [PGK1_HUMAN_76],inactive: 0.565,inactive: 0.545,inactive: 0.642,inactive: 0.744,inactive: 0.645,inactive: 0.743
GVPMPDKYSLAPVAV [PGK2_HUMAN_76],inactive: 0.806,inactive: 0.644,inactive: 0.619,inactive: 0.748,inactive: 0.572,inactive: 0.671

Binder,enrichment score (SHP2 C-SH2 domain E139D),enrichment score [1],enrichment score (SHP2 N-SH2 domain L43F),enrichment score (SHP2 N-SH2 domain T42A),enrichment score (SHP2 N-SH2 domain T52S),enrichment score [2]
SATKIALYETPTGWK [PGM1_HUMAN_353],inactive: 0.972,inactive: 0.867,inactive: 0.888,inactive: 1.09,inactive: 0.967,inactive: 0.871
GLGMEGPYEVLKDSS [PHAG1_HUMAN_163],inactive: 0.686,inactive: 0.599,inactive: 0.892,inactive: 0.745,inactive: 0.67,inactive: 0.816
GKAEFAEYASVDRNK [PHAG1_HUMAN_227],inactive: 0.852,inactive: 0.71,inactive: 0.761,inactive: 0.698,inactive: 0.726,inactive: 0.836
SEEPEPDYEAIQTLN [PHAG1_HUMAN_387],inactive: 1.13,inactive: 1.01,inactive: 1.01,inactive: 1.09,inactive: 1.22,inactive: 1.15
FTSIGEDYDERVLPS [PHB_HUMAN_114],inactive: 0.492,inactive: 0.476,inactive: 0.519,inactive: 0.669,inactive: 0.646,inactive: 0.614
EAAEDIAYQLSRSRN [PHB_HUMAN_249],inactive: 0.625,inactive: 0.467,inactive: 0.582,inactive: 0.516,inactive: 0.577,inactive: 0.528
YQRLGLDYEERVLPS [PHB2_HUMAN_128],inactive: 0.603,inactive: 0.775,inactive: 0.505,inactive: 0.503,inactive: 0.425,inactive: 0.719
AQRLGLDYEERVLPS [PHB2_HUMAN_128_YA],inactive: 0.608,inactive: 0.646,inactive: 0.528,inactive: 0.576,inactive: 0.494,inactive: 0.653
EFDIEEDYTTDEDMV [PHF8_HUMAN_704],inactive: 1.13,inactive: 1.37,inactive: 0.988,inactive: 1.12,inactive: 1.37,inactive: 1.21
NQATEDVYQLEQQLH [PKD1_HUMAN_4237],inactive: 0.92,inactive: 0.617,inactive: 0.877,inactive: 0.712,inactive: 0.843,inactive: 0.824
AQYMGSGYTKAVYRV [PKDCC_HUMAN_148],inactive: 0.718,inactive: 0.873,inactive: 1.09,inactive: 0.759,inactive: 0.916,inactive: 0.951
GAERNLLYEDAHRAG [ARGAL_HUMAN_152],inactive: 0.553,inactive: 0.475,inactive: 0.578,inactive: 0.5,inactive: 0.641,inactive: 0.62
DLHITPIYEGRTAAS [PKP4_HUMAN_415_YA],inactive: 0.566,inactive: 0.466,inactive: 0.668,inactive: 0.565,inactive: 0.516,inactive: 0.585
ALNTTATYAEPYRPI [PKP4_HUMAN_478],inactive: 0.646,inactive: 0.487,inactive: 0.682,inactive: 0.639,inactive: 0.681,inactive: 0.633
ALNTTATYAEPARPI [PKP4_HUMAN_478_YA],inactive: 0.704,inactive: 0.553,inactive: 0.746,inactive: 0.607,inactive: 0.626,inactive: 0.63
EGSFESRYQQPFEDF [PLCG1_HUMAN_1253],inactive: 0.6,inactive: 0.611,inactive: 0.628,inactive: 0.576,inactive: 0.632,inactive: 0.689
WDQEAQIYELVAQTV [ARHG1_HUMAN_738],inactive: 0.818,inactive: 0.768,inactive: 0.815,inactive: 0.681,inactive: 0.654,inactive: 0.86
EPDYGALYEGRNPGF [PLCG1_HUMAN_775],inactive: 0.6,inactive: 0.386,inactive: 0.507,inactive: 0.358,inactive: 0.41,inactive: 0.484
